In patent publication US20230257469A1 (SINOCELLTECH, published 2023):

T1: TGF-β3 protein (UniProt P10600 301-412)
T1 sequence (looked up): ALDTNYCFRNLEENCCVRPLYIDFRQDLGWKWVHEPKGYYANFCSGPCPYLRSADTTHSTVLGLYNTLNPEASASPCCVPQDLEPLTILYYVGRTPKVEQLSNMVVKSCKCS

B1: EGFR antibody/TGFβR2 fusion protein 6 (ECD delete (6-26)) (other)
heavy: EVQLVQSGAEVKKPGATVKISCKVSGYTFTTYYTHWVKQAPGKGLEWIGWIYPGDVNTKYNEKFKGRVTLTADTSTDTAYMELSSLRSEDTAVYYCAREDPGSNYFDYWGQGTLVTVSS[left out - human IgG1 constant region]GGGSGGGGSGGGGSGGGGSIPPHVLCKFCDVRFSTCDNQKSCMSNCSITSICEKPQEVCVAVWRKNDENITLETVCHDPKLPYHDFILEDAASPKCIMKEKKKPGETFFMCSCSSDECNDNIIFSEEYNTSNPD
light: DIQMTQSPSSLSASVGDRVTITCRASENIYYSLAWYQQKPGKAPQLLIYITDGLADGVPSRFSGSGSGTDYTLKIDSLQPEDFATYYCKQSYDVPLTFGGGTKVEIKRTVAAPSVFIFPPSDEQLKSGTASVVCLLNNFYPREAKVQWKVDNALQSGNSQESVTEQDSKDSTYSLSSTLTLSKADYEKHKVYACEVTHQGLSSPVTKSFNRGEC
notes: Expressed in HEK-293 cells (fut8 knockout)
B2: EGFR antibody/TGFβR2 fusion protein 1 (full-length TGFβR2 extracellular domain) (other)
heavy: EVQLVQSGAEVKKPGATVKISCKVSGYTFTTYYTHWVKQAPGKGLEWIGWIYPGDVNTKYNEKFKGRVTLTADTSTDTAYMELSSLRSEDTAVYYCAREDPGSNYFDYWGQGTLVTVSS[left out - human IgG1 constant region]GGGSGGGGSGGGGSGGGGSIPPHVQKSVNNDMIVTDNNGAVKFPQLCKFCDVRFSTCDNQKSCMSNCSITSICEKPQEVCVAVWRKNDENITLETVCHDPKLPYHDFILEDAASPKCIMKEKKKPGETFFMCSCSSDECNDNIIFSEEYNTSNPD
light: B1 light
notes: Antibody-receptor fusion: EGFR-HPA8 heavy chain without C-terminal lysine, (G4S)4 linker, TGFβR2 ECD
B3: X/TGFβR2 fusion protein 24 (Ramucirumab, full length TGFβR2 ECD) (other)
heavy: EVQLVQSGGGLVKPGGSLRLSCAASGFTFSSYSMNWVRQAPGKGLEWVSSISSSSSYIYYADSVKGRFTISRDNAKNSLYLQMNSLRAEDTAVYYCARVTDAFDIWGQGTMVTVSS[left out - human IgG1 constant region]GGGSGGGGSGGGGSGGGGSIPPHVQKSVNNDMIVTDNNGAVKFPQLCKFCDVRFSTCDNQKSCMSNCSITSICEKPQEVCVAVWRKNDENITLETVCHDPKLPYHDFILEDAASPKCIMKEKKKPGETFFMCSCSSDECNDNIIFSEEYNTSNPD
light: DIQMTQSPSSVSASIGDRVTITCRASQGIDNWLGWYQQKPGKAPKLLIYDASNLDTGVPSRFSGSGSGTYFTLTISSLQAEDFAVYFCQQAKAFPPTFGGGTKVDIKRTVAAPSVFIFPPSDEQLKSGTASVVCLLNNFYPREAKVQWKVDNALQSGNSQESVTEQDSKDSTYSLSSTLTLSKADYEKHKVYACEVTHQGLSSPVTKSFNRGEC
notes: Signal peptide of 19 residues left out; limits counted from the printed segments
B4: X/TGFβR2 fusion protein 25 (Ramucirumab, ECD delete (6-26)) (other)
heavy: EVQLVQSGGGLVKPGGSLRLSCAASGFTFSSYSMNWVRQAPGKGLEWVSSISSSSSYIYYADSVKGRFTISRDNAKNSLYLQMNSLRAEDTAVYYCARVTDAFDIWGQGTMVTVSS[left out - human IgG1 constant region]GGGSGGGGSGGGGSGGGGSIPPHVLCKFCDVRFSTCDNQKSCMSNCSITSICEKPQEVCVAVWRKNDENITLETVCHDPKLPYHDFILEDAASPKCIMKEKKKPGETFFMCSCSSDECNDNIIFSEEYNTSNPD
light: B3 light
notes: as for B3

What was measured:
[1] = target: T2, recombinant human TGF-β1 protein (human, UniProt P01137 part only); test: ELISA; TGF-β1 coated at 2 µg/mL, fusion protein titrated
T2 construct: the ELISA and cell assays say only TGF-β1 protein; also called TGF-β1 factor

TGF-β3 protein = target: T1, TGF-β3 protein; test: ELISA; TGF-β3 coated at 2 µg/mL, fusion protein titrated
[2] = target: T3, Recombinant human EGFR-His protein (human, UniProt P00533 part only); test: BLI (Fortebio OctetRED96e), biotinylated recombinant human EGFR protein, fit over several concentrations
T3 construct: Bought protein; also called recombinant human EGFR protein; human EGFR protein; not shown: His tag

[3] = target: T2, recombinant human TGF-β1 protein; test: BLI (Fortebio OctetRED96e), biotinylated recombinant human TGF-β1 protein, fit over several concentrations
[4] = target: T2, recombinant human TGF-β1 protein; test: ELISA on coated TGF-β1 according to Example 3.4

T2 sequence (P01137 279-390 limits assumed): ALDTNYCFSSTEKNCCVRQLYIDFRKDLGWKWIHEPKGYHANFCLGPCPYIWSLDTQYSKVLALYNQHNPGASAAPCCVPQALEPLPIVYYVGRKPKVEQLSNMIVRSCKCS

Binder | EC50 [1] [nM] | EC50 (TGF-β3 protein) [nM] | Kd [2] [nM] | koff [2] [s⁻¹] | kon [2] [M⁻¹ s⁻¹] | Kd [3] [nM] | koff [3] [s⁻¹] | kon [3] [M⁻¹ s⁻¹] | binding result [4]
B1 | 0.091 | 0.102 | 0.00877 | 1.47e-05 | 1.68e+06 | 0.0961 | 0.000147 | 1.53e+06 | 
B2 |  |  |  |  |  | 0.173 | 0.000251 | 1.45e+06 | 
B3 |  |  |  |  |  |  |  |  | binds
B4 |  |  |  |  |  |  |  |  | binds
